Results taken from article PMC8882856, “The affinity and selectivity of α‐adrenoceptor antagonists, antidepressants and antipsychotics for the human α2A, α2B, and α2C‐adrenoceptors and comparison with human α1 and β‐adrenoceptors” (Pharmacology Research & Perspectives, 2022).
Like-named read-outs stand apart in the source and are kept apart here. Values belong to the molecule of their own block, whether it stands above or below them.

What was measured:
[1] = system: human α1A‐adrenoceptor; test: whole cell binding at α1A‐adrenoceptor, identical technique, previous study [33]; details: abstract
[2] = biological target: T1, human α2A‐adrenoceptor (Homo sapiens, UniProt P08913); test: ^3H‐rauwolscine whole cell competition binding, CHO‐α2A cells
T1 sequence (P08913 1-465): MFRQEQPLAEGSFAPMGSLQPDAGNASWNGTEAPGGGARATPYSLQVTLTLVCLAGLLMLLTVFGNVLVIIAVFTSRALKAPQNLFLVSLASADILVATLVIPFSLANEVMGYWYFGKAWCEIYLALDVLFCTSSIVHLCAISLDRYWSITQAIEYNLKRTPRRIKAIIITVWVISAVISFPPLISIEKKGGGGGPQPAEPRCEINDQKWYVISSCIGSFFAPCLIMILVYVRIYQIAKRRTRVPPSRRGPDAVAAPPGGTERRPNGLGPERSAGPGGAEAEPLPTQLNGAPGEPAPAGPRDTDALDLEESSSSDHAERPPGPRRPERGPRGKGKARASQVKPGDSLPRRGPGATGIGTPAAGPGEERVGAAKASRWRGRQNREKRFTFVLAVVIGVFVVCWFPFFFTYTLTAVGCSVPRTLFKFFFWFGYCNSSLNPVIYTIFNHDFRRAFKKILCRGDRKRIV

[3] = biological target: human α1A‐adrenoceptor; parameters: method as in PMID 32608144; details: identical whole cell method; ref [33]; read-out: α1A‐adrenoceptor affinity; cited from earlier work
[4] = biological target: T1, human α2A‐adrenoceptor; test: whole cell saturation binding of radioligands, CHO‐α2A cells; details: whole living cells, 2 h 37°C; read-out: KD of radioligand, saturation binding, CHO‐α2A cells
[5] = biological target: T2, human α2C‐adrenoceptor (Homo sapiens, UniProt P18825); test: whole cell saturation binding of radioligands, CHO‐α2C cells; details: whole living cells, 2 h 37°C; read-out: KD of radioligand, saturation binding, CHO‐α2C cells
T2 sequence (P18825 1-462): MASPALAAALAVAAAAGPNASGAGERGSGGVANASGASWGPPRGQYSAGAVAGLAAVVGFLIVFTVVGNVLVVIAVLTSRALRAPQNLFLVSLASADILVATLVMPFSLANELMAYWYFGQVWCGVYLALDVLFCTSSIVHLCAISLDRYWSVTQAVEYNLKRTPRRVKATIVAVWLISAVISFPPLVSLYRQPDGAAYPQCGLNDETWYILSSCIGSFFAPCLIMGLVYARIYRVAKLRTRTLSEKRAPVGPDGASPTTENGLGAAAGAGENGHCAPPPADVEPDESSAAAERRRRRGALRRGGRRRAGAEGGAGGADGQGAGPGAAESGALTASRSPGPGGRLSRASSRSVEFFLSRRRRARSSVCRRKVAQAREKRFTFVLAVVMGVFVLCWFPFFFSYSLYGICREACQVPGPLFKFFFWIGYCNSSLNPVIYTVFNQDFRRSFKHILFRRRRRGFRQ

[6] = biological target: T3, human α2B‐adrenoceptor (Homo sapiens, UniProt P18089); test: whole cell saturation binding of radioligands, CHO‐α2B cells; details: whole living cells, 2 h 37°C; read-out: KD of radioligand, saturation binding, CHO‐α2B cells
T3 sequence (P18089 1-450): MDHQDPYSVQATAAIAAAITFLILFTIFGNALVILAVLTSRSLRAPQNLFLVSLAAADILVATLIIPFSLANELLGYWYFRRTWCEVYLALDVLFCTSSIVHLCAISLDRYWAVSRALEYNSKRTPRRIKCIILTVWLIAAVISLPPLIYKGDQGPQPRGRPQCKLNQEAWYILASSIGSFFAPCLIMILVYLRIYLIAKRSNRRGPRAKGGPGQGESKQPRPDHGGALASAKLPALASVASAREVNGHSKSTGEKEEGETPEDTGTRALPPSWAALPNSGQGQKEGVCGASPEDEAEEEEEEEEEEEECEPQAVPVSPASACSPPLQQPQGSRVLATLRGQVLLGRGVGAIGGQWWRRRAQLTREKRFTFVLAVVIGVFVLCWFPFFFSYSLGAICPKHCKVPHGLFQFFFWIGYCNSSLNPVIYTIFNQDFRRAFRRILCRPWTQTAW

[7] = biological target: T2, human α2C‐adrenoceptor
[8] = biological target: T2, human α2C‐adrenoceptor; test: ^3H‐RX821002 whole cell competition binding, CHO‐α2C cells; details: ^3H‐RX821002 as radioligand; living CHO cells; log values, mean ± s.e.mean
[9] = biological target: T1, human α2A‐adrenoceptor
[10] = biological target: T1, human α2A‐adrenoceptor; test: ^3H‐RX821002 whole cell competition binding, CHO‐α2A cells; details: ^3H‐RX821002 as radioligand; living CHO cells; log values, mean ± s.e.mean; ^app = apparent KD from extrapolated curve
[11] = biological target: T3, human α2B‐adrenoceptor; test: ^3H‐rauwolscine whole cell competition binding, CHO‐α2B cells
[12] = biological target: T3, human α2B‐adrenoceptor; test: ^3H‐RX821002 whole cell competition binding, CHO‐α2B cells; details: ^3H‐RX821002 as radioligand; living CHO cells; log values, mean ± s.e.mean; ^app = apparent KD
[13] = biological target: T3, human α2B‐adrenoceptor

- selectivity for α2A over α2C [2]: 9 fold
- Kd ([2]; read-out: α2A‐affinity, this study): 65 nM
Compound: CC1c2ccccc2CN1CC1=NCCN1 (centres unmarked) [BRL44408]
- α1A‐affinity greater than α2C‐affinity [1]: 9 fold
- Kd [3]: 81 nM

- Kd [4]: 4.73 ± 0.42 nM
- Kd [5]: 3.6 ± 0.24 nM
- Kd [6]: 18 ± 1.41 nM
Compound: COC1(C2=NCCN2)COc2ccccc2O1 (centres unmarked) [^3H‐RX821002]

- Kd [7]: 56.2 nM
- Log KD α2C [8]: −7.18 ± 0.05
- Kd [9]: 1020 nM
- Log KD α2A [10]: −5.99 ± 0.06
- selectivity α2B versus α2C [11]: less than 5 fold
- Log KD α2B [12]: −7.29 ± 0.14
- Kd [13]: 47.9 nM
Compound: COc1ccccc1N1CCN(CCN2C(=O)c3ccccc3C(C)(C)C2=O)CC1 [ARC239]
